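Assay format: 96-well plates, 48-hour exposure. Abbreviation: GI50, concentration required for 50% inhibition of growth.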 Not every entry of the source has a single result; some have several. The list is limited to them. There may be further records. A record mostly stands for its own series of concentrations, not given here; some values may only mark the edge of a range. Marks in square brackets tell the records apart. Letters count within one entry.
System: MDA-MB-468 breast
Experiment: inhibition of tumour cell growth, NCI panel, 48 h

CCc1c2c(nc3ccc(OC(=O)N4CCC(N5CCCCC5)CC4)cc13)-c1cc3c(c(=O)n1C2)COC(=O)[C@]3(O)CC
GI50: 2.17 µM [sample A, 1 test] and 192 nM, 266 nM [sample B, 1 test]

From PubChem BioAssay (NCI)
